AUC and IC50 data for nine cell lines are collected here from the supplement of paper PMC4967469.

A word on the IC50: it is the point on the concentration scale where inhibition reaches its midpoint.

Lines with a small IC50 respond at low doses; a fit beyond the top or the lowest dose is shown as a bound at that dose. AUC sums up the same curve from the lowest dose to the 256-fold higher top dose: 1 means no effect, lower means more sensitive. For some of these results: Where the top dose is marked as inferred, it is not printed in the source and was worked back from the curve model.

Common to all, as to test: Viability of human cancer cell lines after 72 h of drug (GDSC screen)
Compound in one test: Cc1ccc2nc(NCCN)c3ncc(C)n3c2c1 [BMS-345541]
The note with it: top dose 16 µM. As to the method:
(§1)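 Human cancer cell lines in 384-well plates, medium with 10% serum, drug for 72 h over a 256-fold dose range (nine 2-fold or five 4-fold steps up to the top dose). Adherent lines were fixed and stained with the nucleic acid dye Syto60, suspension lines read with resazurin; signal relative to control wells, capped at 0 and 100%. One two-parameter sigmoid per drug and line, fitted in a mixed model over all curves with the slope shared within a line.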

Compound in the next test: O=C(O)c1ccc(-c2c[nH]c3ncc(-c4ccccc4)cc23)cc1C1CCCC1 [GSK-650394]
The note with it: top dose 16 µM; top dose inferred. As to the method: as §1

Compound in a further test: C=C(c1ccc(C(=O)O)cc1)c1cc2c(cc1C)C(C)(C)CCC2(C)C [Bexarotene]
Particulars: top dose 8 µM. As for the experimental part: as §1

Compound in the next test: COc1cc([C@@H]2c3cc4c(cc3[C@@H](O[C@@H]3O[C@@H]5CO[C@@H](C)O[C@H]5[C@H](O)[C@H]3O)[C@H]3COC(=O)[C@H]23)OCO4)cc(OC)c1O [Etoposide]
The note with it: top dose 16 µM. As to the method:
as §1

Compound in the next test: COc1cc(C(=O)NC2CCN(C)CC2)ccc1Nc1ncc2c(n1)N(C1CCCC1)C(C)CC(=O)N2C [NPK76-II-72-1]
Particulars: top dose 10.24 µM; top dose inferred. As for the experimental part: as §1

Compound in the next test: COc1ccc(C(=O)CC2(O)C(=O)Nc3c(Cl)ccc(Cl)c32)cc1 [YK 4-279]
Particulars: top dose 10 µM. As to the method: as §1

Compound in a further test: Oc1nc(-c2ccc(C(F)(F)F)cc2)nc2c1CSCC2 [XAV 939]
The note with it: top dose 5 µM; top dose inferred. As for the experimental part:
as §1

Compound in the next test: NC(=O)Nc1cc(-c2cccc(F)c2)sc1C(=O)N[C@H]1CCCNC1 [AZD7762]
Particulars: top dose 2 µM. As for the experimental part:
as §1

As to “SIG-M5 (acute myeloid leukaemia, suspension)”, the AUC with BMS-345541 stood at 0.592; with GSK-650394, 0.476; in the test with Bexarotene, 0.032; with Etoposide, 0.166; in the test with NPK76-II-72-1, 0.531. Further, the half-maximal inhibitory concentration (IC50) with BMS-345541 is 1.67 µM; in the test with GSK-650394, 0.875 µM; with Bexarotene it was < 0.0312 µM; with Etoposide it was 0.143 µM; in the test with NPK76-II-72-1, 0.762 µM.

Take SK-HEP-1 (liver, adherent): the AUC was 0.894 with BMS-345541; 0.717 in the test with GSK-650394; 0.658 with YK 4-279; 0.932 with Bexarotene; 0.931 with XAV 939; 0.971 with NPK76-II-72-1. Further, the AUC with AZD7762 stood at 0.955. In addition, the half-inhibitory concentration (IC50) with BMS-345541 was > 16 µM; with GSK-650394, 3.92 µM; with YK 4-279, 1.67 µM; in the test with Bexarotene it was > 8 µM; with XAV 939 it was > 5 µM; with NPK76-II-72-1, > 10.2 µM. Further, in the test with AZD7762, the IC50 was > 2 µM.

In the case of SK-MEL-30 (melanoma, adherent), the AUC with BMS-345541 was 0.842; with GSK-650394, 0.776; with YK 4-279, 0.699; with Bexarotene it was 0.941; with XAV 939, 0.984; with NPK76-II-72-1, 0.944. Besides, in the test with AZD7762, the AUC turned out to be 0.639. Also, the IC50 with BMS-345541 is 12.1 µM; with GSK-650394, 6.75 µM; with YK 4-279 it was 2.34 µM; with Bexarotene, > 8 µM; in the test with XAV 939, > 5 µM; with NPK76-II-72-1 it was > 10.2 µM. Also, in the test with AZD7762, the half-maximal inhibitory concentration (IC50) is 0.31 µM.

As to “SK-MES-1 (lung squamous cell carcinoma, adherent)”, the AUC in the test with BMS-345541 is 0.886; with GSK-650394, 0.784; with YK 4-279, 0.862; in the test with Bexarotene, 0.859; in the test with XAV 939, 0.919; in the test with NPK76-II-72-1, 0.985. For the same cell line, the AUC with AZD7762 turned out to be 0.786. The half-inhibitory concentration (IC50) is > 16 µM in the test with BMS-345541; 7.41 µM with GSK-650394; 9.78 µM with YK 4-279; 7.58 µM with Bexarotene; > 5 µM with XAV 939; > 10.2 µM with NPK76-II-72-1. For the same cell line, the IC50 with AZD7762 came out at 0.942 µM.

Turning to SNU-475 (liver, adherent), the AUC amounted to 0.893 in the test with BMS-345541; 0.979 in the test with GSK-650394; 0.971 with Bexarotene; 0.947 with Etoposide; 0.851 with NPK76-II-72-1. In addition, the 50% inhibitory concentration (IC50) with BMS-345541 was 15.2 µM; with GSK-650394, > 16 µM; with Bexarotene it was > 8 µM; with Etoposide it was > 16 µM; with NPK76-II-72-1 it was 6.48 µM.

With SU-DHL-4 (B-cell lymphoma, suspension), the AUC with BMS-345541 was 0.807; in the test with GSK-650394, 0.995; with YK 4-279, 0.989; in the test with Bexarotene, 0.986; with XAV 939, 0.997; with NPK76-II-72-1, 0.866. Besides, the AUC with AZD7762 turned out to be 0.707. For the same cell line, the IC50 with BMS-345541 is 5.64 µM; in the test with GSK-650394, > 16 µM; with YK 4-279, > 10 µM; in the test with Bexarotene it was > 8 µM; in the test with XAV 939 it was > 5 µM; in the test with NPK76-II-72-1, 5.16 µM. The IC50 in the test with AZD7762 was 0.395 µM.

Regarding SU-DHL-6 (B-cell lymphoma, suspension), the AUC came to 0.627 with BMS-345541; 0.882 with GSK-650394; 0.868 with YK 4-279; 0.938 in the test with Bexarotene; 0.995 with XAV 939; 0.676 with NPK76-II-72-1. For the same cell line, the AUC with AZD7762 was 0.247. Moreover, the half-inhibitory concentration (IC50) was 2.04 µM with BMS-345541; 9.65 µM in the test with GSK-650394; 5.44 µM with YK 4-279; 7.87 µM with Bexarotene; > 5 µM with XAV 939; 1.72 µM with NPK76-II-72-1. Moreover, in the test with AZD7762, the 50% inhibitory concentration (IC50) was determined as 0.0299 µM.

With SW13 (adrenal gland, adherent), the AUC with BMS-345541 came out at 0.969; with GSK-650394, 0.963; with YK 4-279 it was 0.687; with Bexarotene it was 0.955; in the test with XAV 939 it was 0.986; in the test with NPK76-II-72-1 it was 0.988. Besides, the AUC in the test with AZD7762 was 0.893. In addition, the IC50 with BMS-345541 is > 16 µM; with GSK-650394, > 16 µM; with YK 4-279, 2.11 µM; with Bexarotene it was > 8 µM; in the test with XAV 939, > 5 µM; in the test with NPK76-II-72-1, > 10.2 µM. Also, in the test with AZD7762, the IC50 was > 2 µM.

For “SW1271 (small cell lung carcinoma, adherent)”, the AUC in the test with BMS-345541 worked out at 0.912; with GSK-650394, 0.8; in the test with YK 4-279, 0.757; in the test with Bexarotene it was 0.957; with XAV 939 it was 0.982; with NPK76-II-72-1 it was 0.782. Besides, the AUC in the test with AZD7762 stood at 0.762. Also, the half-inhibitory concentration (IC50) was > 16 µM in the test with BMS-345541; 9.17 µM in the test with GSK-650394; 3.93 µM with YK 4-279; > 8 µM in the test with Bexarotene; > 5 µM with XAV 939; 4.99 µM with NPK76-II-72-1. Further, the half-inhibitory concentration (IC50) with AZD7762 amounted to 0.818 µM.
